# Source: the supplement of paper PMC4166925
# ± gives the standard deviation of the averaged measurements. Whole data set: some 33,000 sequences, median “E-score (dimensionless, -0.5 to 0.5)” near -0.046, cut for the highest 2% near 0.36. This is one part of the list.
# Test system: T1, SpTbr T-box DNA-binding domain (GST fusion)
# T1 sequence: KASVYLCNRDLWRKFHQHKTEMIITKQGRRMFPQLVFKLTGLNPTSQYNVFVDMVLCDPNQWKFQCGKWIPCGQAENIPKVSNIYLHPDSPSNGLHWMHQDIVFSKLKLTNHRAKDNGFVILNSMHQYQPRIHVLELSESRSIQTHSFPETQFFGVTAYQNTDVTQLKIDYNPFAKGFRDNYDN
# Assay: PBM E-score of 8-mer (E-score (dimensionless, -0.5 to 0.5)); Tbr is Tbrain of the sea star Patiria miniata (Pm) or the sea urchin Strongylocentrotus purpuratus (Sp); higher = stronger binding preference; most listed sequences are background and not binding sites
# Conditions: the construct has about 5 more residues each side
# Outline: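 GST-fused Tbr T-box DNA-binding domains (the whole T-box plus about five flanking residues) were expressed in BL21 E. coli at 20 °C and purified by glutathione affinity chromatography. Universal Agilent oligonucleotide arrays were made double-stranded by primer extension, incubated with 200 nM protein in PBS (pH 7.5), then scanned and quantified. Every ungapped 8-mer was scored from probe intensities. The Universal PBM Analysis Suite gave each word an enrichment E-score, averaged over duplicate arrays.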
row,Sequence,PBM E-score of 8-mer
1,AATTAATC,-0.273 ± 0.014
2,AGGGTCTC,-0.14 ± 0.065
3,CTGCATGC,-0.147 ± 0.088
4,CTCCGCGC,-0.0659 ± 0.051
5,AGTGCCTC,-0.183 ± 0.1
6,CGCGATAG,0.197 ± 0.028
7,AAACGCAC,0.119 ± 0.063
8,GAGAACTC,0.0875 ± 0.11
9,AACAGCCC,0.0217 ± 0.058
10,ATCGTACG,-0.269 ± 0.041
11,CCCAGGTA,-0.101 ± 0.0075
12,CCCCTCGA,0.14 ± 0.0029
13,CAATGGGC,-0.128 ± 0.014
14,GCTTATAC,-0.306 ± 0.1
15,AGAGAGTA,-0.124 ± 0.04
16,TCTGGAAA,-0.194 ± 0.015
17,GAGGCAAC,0.0457 ± 0.042
18,AAGGGATG,-0.266 ± 0.02
19,CGCTGCTA,-0.233 ± 0.012
20,TCCACCGA,-0.0787 ± 0.04
21,ACGTCCAA,-0.122 ± 0.023
22,GTTGGTAA,0.00396 ± 0.04
23,CGTGGAGA,-0.0921 ± 0.096
24,ACGATTCG,0.0807 ± 0.028
25,GGCTTAAC,0.115 ± 0.015

row,Sequence,PBM E-score of 8-mer
1,ATGAGCGG,-0.0884 ± 0.004
2,TACTGCTA,-0.184 ± 0.057
3,ATCTGCTC,-0.203 ± 0.026
4,AAACACAT,0.264 ± 0.049
5,AGGGCCCT,-0.275 ± 0.06
6,AAATGACT,-0.113 ± 0.069
7,GCAGGTTA,-0.0483 ± 0.097
8,ATCAGACG,-0.212 ± 0.051
9,ACTGCGGG,-0.0368 ± 0.06
10,TGGAGCAA,-0.114 ± 0.062
11,AGAATAGC,0.0706 ± 0.034
12,ATCCTCGG,-0.27 ± 0.018
13,AGTCGTAC,-0.152 ± 0.0051
14,CCCAATAA,-0.179 ± 0.0015
15,ACGAGGGG,-0.205 ± 0.016
16,GCGTTGAC,0.364 ± 0.0037
17,AAAGTCAT,-0.158 ± 0.024
18,AGCCATTG,-0.112 ± 0.026
19,AGATCCAC,-0.0421 ± 0.029
20,AATGTGAC,0.348 ± 0.028
21,GAGCGGAA,-0.0528 ± 0.046
22,CACGAGGG,0.0961 ± 0.0066
23,AGGACTAA,-0.109 ± 0.055
24,ACAGGTAG,0.124 ± 0.023
25,AGCAAGGA,0.0257 ± 0.063

row,Sequence,PBM E-score of 8-mer
1,AAACGCGC,0.16 ± 0.0042
2,CGTGTGCA,0.183 ± 0.065
3,CACCCGTC,0.277 ± 0.025
4,CAAGTGGG,0.265 ± 0.022
5,CAACGGCC,0.0882 ± 0.062
6,AAGTGTAA,0.399 ± 0.018
7,ACTCACTG,0.0349 ± 0.093
8,AACAACAA,0.102 ± 0.0091
9,CGCCCAAC,-0.0222 ± 0.018
10,CAATGCGA,0.129 ± 0.015
11,ACCGCTGG,0.0499 ± 0.012
12,AGGGACAG,-0.105 ± 0.011
13,AGAGTAAT,-0.127 ± 0.084
14,TCATTGCA,-0.0363 ± 0.0038
15,TCTCAACA,0.126 ± 0.045
16,GAACTCGC,0.218 ± 0.032
17,CCCGCGCC,0.0782 ± 0.054
18,AGAACGTA,-0.103 ± 0.0039
19,AATTAGCG,0.222 ± 0.054
20,ACTTCCAG,0.0352 ± 0.018
21,AGTAGCCG,-0.142 ± 0.036
22,GAAGAGGA,-0.167 ± 0.0076
23,ACTCTTCT,-0.224 ± 0.0037
24,AGGTCCGA,-0.19 ± 0.039
25,CTAGCTCC,-0.105 ± 0.1

row,Sequence,PBM E-score of 8-mer
1,ATTCTAAG,-0.0865 ± 0.025
2,AATGTCTC,-0.195 ± 0.03
3,AACAATGA,0.0839 ± 0.096
4,CCCTCCCC,-0.0206 ± 0.028
5,CCACCCCG,0.231 ± 0.055
6,CCTCAAAC,-0.0544 ± 0.056
7,AGACGACA,0.00539 ± 0.033
8,ACCATAAG,-0.182 ± 0.058
9,ATATCTGA,-0.323 ± 0.0072
10,GAGATTGA,-0.0704 ± 0.013
11,CATTCCCA,0.0508 ± 0.048
12,ATGCCGCA,-0.00925 ± 0.053
13,ACCTGGAA,0.139 ± 0.053
14,CAGACGTA,-0.103 ± 0.08
15,GACCAAGA,-0.075 ± 0.058
16,TTCACAAA,0.207 ± 0.074
17,CAGGGATA,-0.339 ± 0.027
18,CCCAGCTA,-0.144 ± 0.013
19,GCTCATCC,-0.141 ± 0.0052
20,AAACCGCC,-0.0164 ± 0.032
21,CGCACGTA,0.145 ± 0.045
22,ACGCCCCC,-0.0304 ± 0.011
23,TTACCTAA,-0.0233 ± 0.055
24,GAATATTA,0.0503 ± 0.027
25,GGGCGTAC,-0.171 ± 0.058

row,Sequence,PBM E-score of 8-mer
1,ACCATTTA,-0.106 ± 0.038
2,CTGCGGTA,-0.219 ± 0.026
3,CCAATGCG,-0.014 ± 0.064
4,GTTGAAGA,0.0103 ± 0.024
5,AATTCATG,-0.0111 ± 0.14
6,CCACAAGG,-0.0106 ± 0.06
7,GCGGATCC,-0.0612 ± 0.051
8,CCACTAGC,0.109 ± 0.032
9,CACCGATC,0.154 ± 0.014
10,CAATGCCC,-0.0949 ± 0.074
11,AGGTGAAA,0.266 ± 0.045
12,ACTCACAA,0.197 ± 0.0079
13,GAACGCGC,0.118 ± 0.082
14,GCGACGAC,0.199 ± 0.043
15,AGAGTGGA,-0.0491 ± 0.061
16,CCATAGAG,-0.191 ± 0.023
17,GCCGTTCA,0.0476 ± 0.01
18,GAGACCTA,-0.0561 ± 0.012
19,ACCACAAT,-0.0442 ± 0.058
20,GCCGCCGC,-0.174 ± 0.02
21,ATGCCGAC,0.104 ± 0.056
22,ATGGGGAC,-0.236 ± 0.057
23,ACCTCTCA,0.237 ± 0.018
24,CTACTAAC,0.193 ± 0.01
25,AACGCCAC,0.247 ± 0.019

row,Sequence,PBM E-score of 8-mer
1,CATGATTA,-0.189 ± 0.0078
2,CAAAGACG,0.0798 ± 0.027
3,CTCATCGA,0.00436 ± 0.066
4,AAAGCAGC,-0.0846 ± 0.00013
5,ACTACCCG,-0.0195 ± 0.094
6,AGACGGTG,0.0312 ± 0.0069
7,CAGCAATG,0.09882 ± 0.00078
8,CAAGACAG,-0.0195 ± 0.06
9,ACGAGTTC,-0.0205 ± 0.056
10,CTACCTTC,-0.0788 ± 0.011
11,ACACAGAT,0.0853 ± 0.0088
12,CCCAGCGA,-0.014 ± 0.13
13,GGCCAACA,0.0485 ± 0.028
14,CAATCGAC,0.0568 ± 0.033
15,ACGAGAGT,-0.025 ± 0.013
16,GTTATTTA,0.0194 ± 0.077
17,AGCTTAGC,-0.0471 ± 0.037
18,AAAGCTGA,-0.117 ± 0.019
19,AGGTTTCC,-0.0693 ± 0.076
20,AGAGGAAC,-0.243 ± 0.061
21,CTCCTCCA,-0.0939 ± 0.0056
22,ATGAATAG,-0.127 ± 0.097
23,AGCGTTAG,0.183 ± 0.013
24,CCCTTAGG,0.00499 ± 0.015
25,GTGAAAAA,0.251 ± 0.11

row,Sequence,PBM E-score of 8-mer
1,ATGAACAG,-0.0836 ± 0.0021
2,CAGGCGTC,0.236 ± 0.056
3,ACTGACAG,0.2 ± 0.019
4,AGGCTGAC,0.125 ± 0.048
5,CCATAATC,-0.227 ± 0.0037
6,ATGCCGTG,-0.0977 ± 0.023
7,AAGCTAGC,-0.0122 ± 0.052
8,CAGAGAAG,-0.171 ± 0.056
9,GGAATAGA,-0.3 ± 0.043
10,GAAGTTGA,-0.00496 ± 0.067
11,AAGGGTAT,-0.121 ± 0.02
12,CGACCGAA,-0.181 ± 0.0099
13,AGATCTAA,-0.0823 ± 0.041
14,AGAGTGCG,0.221 ± 0.059
15,GCCCGTAA,-0.147 ± 0.041
16,CGAACTGA,0.0992 ± 0.0011
17,CGCCACTA,0.236 ± 0.011
18,CGGAGACG,-0.123 ± 0.06
19,TCCACAGA,-0.0271 ± 0.068
20,GAACTCCA,0.0452 ± 0.029
21,CGCCTAAG,0.0124 ± 0.024
22,ATCGTGCG,0.166 ± 0.0071
